In PubChem BioAssay (NCATS):
“And” between values parts separate entries of the source, which are not always exact repeats. Equal values may be shown once. The inconclusive results got no clear call from the source; some entries with a clear call stand among them for comparison. Potencies of inconclusive entries are doubtful fits and often do not repeat. The source made the active and inactive calls. The call rests on the fitted dose curve; in most records, active means well fitted curve in the direction sought with a large enough effect; inconclusive means small, poorly fitted or top-dose-only effect, or another doubt; inactive means no such curve, though single readings can be large; an effect the other way counts as inactive or inconclusive.

Experiment: HepG2 cells viability qHTS for Zika virus inhibitors (AID 1347168)
Settings: Zika counter-screen; series mostly up to 45.9 µM; activity change, negative = cytotoxicity: at the top concentration
How it was run: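 Cells seeded at 2.5 x 10^5 cells/mL in DMEM with 4% FBS and attached overnight at 37 degrees C, then exposed to compound for 24 to 48 hours. Viability read as ATP content by CellTiter Glo luminescence.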
On the % scale 0 is the no-effect control and ±100 the full control effect; potency means the concentration at half of the fitted maximal effect; tags describe the fitted curve by direction and shape.

SMILES | Potency | activity change, negative = cytotoxicity
CCc1nc(N)nc(N)c1-c1ccc(Cl)cc1 | inconclusive: 9.3 µM [cytotoxic, single point] and inconclusive: 9.27 µM [cytotoxic, full curve] | 
CC1COc2c(N3CCN(C)CC3)c(F)cc3c(=O)c(C(=O)O)cn1c23 (centres undefined) | inactive | 
CC1(C)CCC(CN2CCN(c3ccc(C(=O)NS(=O)(=O)c4ccc(NCC5CCOCC5)c([N+](=O)[O-])c4)c(Oc4cnc5[nH]ccc5c4)c3)CC2)=C(c2ccc(Cl)cc2)C1 | inconclusive: 36.9 µM [cytotoxic, single point] | 
S=c1nc[nH]c2nc[nH]c12 | inconclusive: 5.87 µM [cytotoxic, full curve] | 
Cc1ccc(-n2[nH]c(C)c(N=Nc3cccc(-c4cccc(C(=O)O)c4)c3O)c2=O)cc1C |  | inactive: -15.1%
OC(c1cc(C(F)(F)F)nc2c(C(F)(F)F)cccc12)C1CCCCN1 (centres undefined) | inconclusive: 23.4 µM [cytotoxic, partial curve, poor fit] | 

Experiment: Tertiary RLuc qRT-PCR qHTS assay for Zika virus inhibitors (AID 1347169); further: nearly all actives have a fitted effect of over 55% in size; on activity change, negative = inhibition: top concentration of the series differs between compounds
Settings: infected Vero cells, reporter luminescence, 48-72 h; series mostly up to 45.9 µM; activity change, negative = inhibition: at the top concentration
How it was run: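 Inhibition of ZIKV-RLuc replication in Vero cells, read as Renilla luminescence 1-1.5 hrs after live-cell substrate addition, following 48-72 hrs infection at MOI 1-2 in presence of compound.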

SMILES | Potency | activity change, negative = inhibition
CN(C)c1ccc(O)c2c1C[C@H]1C[C@H]3[C@H](N(C)C)C(=O)C(C(N)=O)=C(O)[C@@]3(O)C(=O)C1=C2O | inconclusive: 20.8 µM [inhibitor, partial curve, poor fit] | 
CCc1nc(N)nc(N)c1-c1ccc(Cl)cc1 | active: 11.7 µM and active: 16.5 µM | 
COc1c(N2CCNC(C)C2)c(F)cc2c(=O)c(C(=O)O)cn(C3CC3)c12 (centres undefined) | inactive | 
CC1(C)CCC(CN2CCN(c3ccc(C(=O)NS(=O)(=O)c4ccc(NCC5CCOCC5)c([N+](=O)[O-])c4)c(Oc4cnc5[nH]ccc5c4)c3)CC2)=C(c2ccc(Cl)cc2)C1 | inconclusive: 3.69 µM [inhibitor, full curve] and active: 5.72 µM | 
CC(C)(C)OC(=O)N[C@H]1CCCCCC=C[C@@H]2C[C@@]2(C(=O)NS(=O)(=O)C2CC2)NC(=O)[C@@H]2C[C@@H](OC(=O)N3Cc4cccc(F)c4C3)CN2C1=O | inconclusive: 14.7 µM [inhibitor, partial curve, poor fit] | 
Cc1ccn(-c2ccc(-c3ncco3)cc2)c(=O)c1-c1ccc2nc(N)ncc2c1 | inconclusive: 14.7 µM [inhibitor, partial curve] | 
O=c1cc(-c2ccc(O)c(O)c2)oc2cc(O)cc(O)c12 |  | inactive: 46.1% [at 3.57 µM]
S=c1nc[nH]c2nc[nH]c12 | active: 20.8 µM and inconclusive: 23.4 µM [inhibitor, partial curve] and inconclusive: 13.1 µM [inhibitor, partial curve] | 
Cc1ccc(-n2[nH]c(C)c(N=Nc3cccc(-c4cccc(C(=O)O)c4)c3O)c2=O)cc1C | inconclusive: 9.3 µM [inhibitor, partial curve] | 
O=C(C1CC1)N1CC[C@@H](Cn2c(-c3ccc(-c4ccc5occc5c4)cc3)nc3cnccc32)C1 | inconclusive: 16.5 µM [inhibitor, partial curve] | 
OC(c1cc(C(F)(F)F)nc2c(C(F)(F)F)cccc12)C1CCCCN1 (centres undefined) | active: 16.5 µM | 
O=C(O)c1c(Cl)c(Cl)c(Cl)c(Cl)c1-c1c2cc(I)c(=O)c(I)c-2oc2c(I)c(O)c(I)cc12 |  | inactive: 33.1% [at 14.8 µM]
C[C@H]1c2cccc(O)c2C(O)=C2C(=O)[C@]3(O)C(O)=C(C(N)=O)C(=O)[C@@H](N(C)C)[C@@H]3[C@@H](O)[C@@H]21 | inconclusive: 18.5 µM [inhibitor, partial curve] | 
